# Results: PubChem BioAssay (NCATS)
# Inconclusive means that the source gave no clear call. Such entries were picked first, then a sample of the others. Where the call is inconclusive, the potency comes from a doubtful curve fit. Calls of active or inactive are those of the source. Calls follow the shape of the dose curve; as a rule, active = well fitted inhibition curve with a large enough effect; inconclusive = small, poorly fitted or top-dose-only effect; inactive = no such curve, though single readings can be large or run the other way.
# Target: Retinaldehyde dehydrogenase 3 (Homo sapiens) (UniProt P47895)
# Assay: qHTS for Inhibitors of the Aldehyde Dehydrogenase Family (ALDH1A3) Primary screen (AID 2061315);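 as to activity change, negative = inhibition: plate controls were DMSO vehicle for no effect and reference inhibitor for full effect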
# Conditions: ALDH inhibition qHTS; activity change, negative = inhibition: at 56 µM (top of the series) unless noted
# Potency is read from the fitted curve at half-maximal effect; tags tell the direction and shape of the fitted curve.
Structure (SMILES),"activity change, negative = inhibition",Potency
CC(=O)N1CCN(S(=O)(=O)c2ccc3c(c2)CC(=O)N3)CC1,inactive: 2.62% [at 114 µM],
CC(C)(C)OC(=O)N1CCN(c2ccc(NCc3ccc4c(c3)OCO4)cc2)CC1,,"inconclusive: 3.98 µM [inhibitor, full curve, poor fit]"
C=C(CCC1C(C)(O)CCC2C(C)(C)C(O)CCC12C)C(O)CO (centres undefined),inactive: 1.04%,
Cc1ccc(-c2ccc(CNc3nc(-c4ccccc4C(C)C)nc4ccsc34)cc2)cn1,,"inconclusive: 1.78 µM [inhibitor, full curve, poor fit]"
CC(C)(C)c1ccc(-c2nc3c(N4CCN(Cc5ccc6nccnc6c5)CC4)cccc3[nH]2)cc1,inactive: -15.8%,
O=C(CNC(=O)C1CCCCC1)OC(C(=O)c1ccccc1)c1ccccc1 (centres undefined),inactive: 3.36%,
O=C1CCc2cc(S(=O)(=O)Nc3ccccc3-c3ccccc3)ccc2N1,,"inconclusive: 2.82 µM [inhibitor, full curve, poor fit]"
O=C(Nc1ccccc1C(=O)O)c1ccccc1,,"inconclusive: 12.6 µM [inhibitor, partial curve]"
N#Cc1ccc(-c2nc3ccccc3s2)cc1,,"inconclusive: 3.98 µM [inhibitor, full curve, poor fit]"
Cc1ccc(-c2ccc(=O)n(CC(=O)NCCCc3ccco3)n2)cc1,,"inconclusive: 14.1 µM [inhibitor, partial curve, poor fit]"
NC(=O)[C@@H]1CC[C@H](c2ccc(OCc3ccccc3F)cc2)N1,,"inconclusive: 25.1 µM [inhibitor, single point]"
COc1cc2c(cc1O)C1(Cc3ccc4c(c3C1=O)OCO4)N(C)CC2 (centres undefined),,"inconclusive: 5.01 µM [inhibitor, full curve, poor fit]"
N#Cc1cccc(CSc2nc3ncc(Br)cc3[nH]2)c1,,"inconclusive: 7.08 µM [inhibitor, partial curve, poor fit]"
O=C(O)CCc1ccc(NCc2cccc3c2CCCN3CCOc2ccccc2)cc1F,inactive: 9.94%,
O=S(=O)(c1ccc2c(c1)OCCO2)N1CCN(S(=O)(=O)c2ccc3c(c2)OCCO3)CC1,,"inconclusive: 3.55 µM [inhibitor, full curve]"
CC1=C(CCC(C)O[C@@H]2O[C@H](CO)[C@@H](O)[C@H](O)[C@H]2O)C(C)(C)CC(O)C1 (some centres undefined),,"inconclusive: 4.47 µM [inhibitor, partial curve, poor fit]"
CC(=O)OC1CC(O)(C(C)C)C2C(OC(=O)c3ccc(O)cc3)C=C(C)C(=O)CC12C (centres undefined),inactive: -8.66% [at 28 µM],
O=C(O)c1ccnc2cc(-c3nc4ccccc4n3CCN3CCCCC3)sc12,,"inconclusive: 2 µM [inhibitor, full curve, poor fit]"
COc1cc(C[C@@]2(O)CO[C@@H](c3ccc(O[C@@H]4O[C@H](CO)[C@@H](O)[C@H](O)[C@H]4O)c(OC)c3)[C@H]2CO)ccc1O,,"inconclusive: 10 µM [inhibitor, single point]"
COc1cc([C@@H]2Oc3c(OC)cc(CCCO)cc3[C@@H]2CO[C@@H]2O[C@H](CO)[C@@H](O)[C@H](O)[C@H]2O)ccc1O,,"inconclusive: 5.01 µM [inhibitor, partial curve]"
Cc1cc(C)nc(NC(=S)N2CCN(c3ncccc3Cl)CC2)c1,inactive: -2.16%,
Cc1nc(NC2CCCCC2)c2nc(-c3ccccc3)n(CCCN3CCCCC3C)c2n1 (centres undefined),inactive: 8.46%,
N#Cc1nc(-c2cccc3ccccc23)oc1NC1COC1,inactive: 4.1%,
CCOc1ccc(CCNC(=O)c2ccccn2)cc1OCC,,"inconclusive: 20 µM [inhibitor, partial curve, poor fit]"
CC(=O)Nc1ccc([C@H](C)C(=O)Nc2ncc(C(C)C)s2)cc1,inactive: -5.25%,
O=c1[nH]ccc2nc(-c3ccc(CN4CCC(c5nc(-c6ccccn6)n[nH]5)CC4)cc3)c(-c3ccccc3)cc12,inactive: 37.5%,
O=C(c1ccc(C#Cc2cccc(F)c2)cn1)N1CC2CC2C1 (centres undefined),,"inconclusive: 28.2 µM [inhibitor, single point]"
CC(=O)NC1CCN(c2nc(-c3ccc(Br)cc3)cs2)CC1,inactive: 6.85%,
O=S(=O)(c1ccc2c(c1)OCCO2)N1CCN(S(=O)(=O)c2ccc3nc(Cl)c(Cl)nc3c2)CC1,inactive: -0.729%,
